Experimental data: US9890133B2 (priority 2011, dated 2018)

Tests used:
[1] = system: Coxsackie B3; assay: microbe, parasite or virus in culture; details: Enterovirus B, B3, read-out: Coxsackie B3 EC50
[2] = system: Coxsackie B1; assay: organism not typed; details: read-out: Coxsackie B1 EC50
[3] = system: Rhinovirus; assay: microbe, parasite or virus in culture; type: cell-based; details: Enterovirus
[4] = HRV14, read-out: Rhino HRV14 EC50
[5] = HRV21, read-out: Rhino HRV21 EC50
[6] = HRV71, read-out: Rhino HRV71 EC50

Row | Compound | EC50 [1] [µg/mL] | EC50 [2] [µg/mL] | EC50 [3, 4] [µg/mL] | EC50 [3, 5] [µg/mL] | EC50 [3, 6] [µg/mL]
1 | CC(C)c1ccc2c(c1)OC1(O)c3cccc(N)c3C(=O)C21NC(=O)c1cncc(O)c1 (stereo not shown) [Example 256, N-(1-Amino-4b-hydroxy-7-isopropyl-10-oxo-9b,10-dihydro-4bH-indeno[1,2-b]benzofuran-9b-yl)-5-hydroxynicotinamide] | < 0.01 | < 0.01 | < 0.01 | < 1 | < 1
2 | CC(C)c1ccc2c(c1)OC1(O)c3cccc(N)c3C(=O)C21NC(=O)c1ncccc1O (stereo not shown) [Example 257, N-(1-Amino-4b-hydroxy-7-isopropyl-10-oxo-9b,10-dihydro-4bH-indeno[1,2-b]benzofuran-9b-yl)-3-hydroxypicolinamide] | < 0.01 | < 0.01 | < 0.01 |  | 
3 | Cc1ccncc1C(=O)NC12C(=O)c3c(N)cccc3C1(O)Oc1cc(C(C)C)ccc12 (stereo not shown) [Example 258, N-(1-Amino-4b-hydroxy-7-isopropyl-10-oxo-9b,10-dihydro-4bH-indeno[1,2-b]benzofuran-9b-yl)-4-methylnicotinamide] | < 0.01 | < 0.01 | < 0.01 | < 1 | 
4 | Cc1cncc(C(=O)NC23C(=O)c4c(N)cccc4C2(O)Oc2cc(C(C)C)ccc23)c1 (stereo not shown) [Example 259, N-(1-Amino-4b-hydroxy-7-isopropyl-10-oxo-9b,10-dihydro-4bH-indeno[1,2-b]benzofuran-9b-yl)-5-methylnicotinamide] | < 0.01 | < 0.01 | < 0.01 | < 1 | < 1
5 | Cc1cc2c(cc1C)C1(NC(=O)c3cccnc3)C(=O)c3c(N)cccc3C1(O)O2 (stereo not shown) [Example 260, N-(1-Amino-4b-hydroxy-7,8-dimethyl-10-oxo-9b,10-dihydro-4bH-indeno[1,2-b]benzofuran-9b-yl)nicotinamide] | < 0.01 | < 0.01 | < 0.01 |  | 
6 | COc1cncc(C(=O)NC23C(=O)c4c(N)cccc4C2(O)Oc2cc(C(C)C)ccc23)c1 (stereo not shown) [Example 261, N-(1-Amino-4b-hydroxy-7-isopropyl-10-oxo-9b,10-dihydro-4bH-indeno[1,2-b]benzofuran-9b-yl)-5-methoxynicotinamide] | < 0.01 | < 0.01 | < 0.01 | < 1 | < 1
7 | Cc1cc2c(cc1C)C1(NC(=O)c3ccc4ncccc4c3)C(=O)c3c(N)cccc3C1(O)O2 (stereo not shown) [Example 262, N-(1-Amino-4b-hydroxy-7,8-dimethyl-10-oxo-9b,10-dihydro-4bH-indeno[1,2-b]benzofuran-9b-yl)quinoline-6-carboxamide] | < 0.01 | < 0.01 | < 0.01 |  | 
8 | CC(C)c1ccc2c(c1)OC1(O)c3cccc(N)c3C(=O)C21NC(=O)c1ccc2ccccc2n1 (stereo not shown) [Example 263] | < 0.01 | < 0.01 | < 0.01 |  | 
9 | CC(C)c1ccc2c(c1)OC1(O)c3cccc(N)c3C(=O)C21NC(=O)c1sc2ccccc2c1Br (stereo not shown) [Example 264] | 0.035 (≈ 0.0637 µM) | 0.011 (≈ 0.02 µM) | 0.034 (≈ 0.0619 µM) |  | 
10 | CC(C)c1ccc2c(c1)OC1(O)c3cccc(N)c3C(=O)C21NC(=O)c1cc2ccccc2[nH]1 (stereo not shown) [Example 265] | < 0.01 | < 0.01 | < 0.01 | < 1 | < 1
11 | CC(C)c1ccc2c(c1)OC1(O)c3cccc(N)c3C(=O)C21NC(=O)c1nccc2ccccc12 (stereo not shown) [Example 266, N-(1-Amino-4b-hydroxy-7-isopropyl-10-oxo-9b,10-dihydro-4bH-benzo[d]indeno[1,2-b]furan-9b-yl)isoquinoline-1-carboxamide] | < 0.01 | < 0.01 | < 0.01 |  | 
12 | COc1c(C(=O)NC23C(=O)c4c(N)cccc4C2(O)Oc2cc(C(C)C)ccc23)cnc2ccc(F)cc12 (stereo not shown) [Example 267, N-(1-Amino-4b-hydroxy-7-isopropyl-10-oxo-9b,10-dihydro-4bH-indeno[1,2-b]benzofuran-9b-yl)-6-fluoro-4-methoxyquinoline-3-carboxamide] | < 0.01 | < 0.01 | 0.012 (≈ 0.0234 µM) | < 1 | < 1.1
13 | CC(C)c1ccc2c(c1)OC1(O)c3cccc(N)c3C(=O)C21NC(=O)c1cc2ccccc2n1C (stereo not shown) [Example 268, N-(1-Amino-4b-hydroxy-7-isopropyl-10-oxo-9b,10-dihydro-4bH-indeno[1,2-b]benzofuran-9b-yl)-1-methyl-1H-indole-2-carboxamide] | < 0.01 | < 0.01 | < 0.01 |  | < 1
14 | CC(C)c1ccc2c(c1)OC1(O)c3cccc(N)c3C(=O)C21NC(=O)c1sc2cc(F)ccc2c1Cl (stereo not shown) [Example 269, N-(1-Amino-4b-hydroxy-7-isopropyl-10-oxo-9b,10-dihydro-4bH-indeno[1,2-b]benzofuran-9b-yl)-3-chloro-6-fluorobenzo[b]thiophene-2-carboxamide] | 0.035 (≈ 0.0669 µM) | 0.018 (≈ 0.0344 µM) | 0.036 (≈ 0.0688 µM) |  | 
15 | Cc1ccc2c(Cl)c(C(=O)NC34C(=O)c5c(N)cccc5C3(O)Oc3cc(C(C)C)ccc34)sc2c1 (stereo not shown) [Example 270, N-(1-Amino-4b-hydroxy-7-isopropyl-10-oxo-9b,10-dihydro-4bH-indeno[1,2-b]benzofuran-9b-yl)-3-chloro-6-methylbenzo[b]thiophene-2-carboxamide] | 0.036 (≈ 0.0694 µM) | 0.03 (≈ 0.0578 µM) | 0.039 (≈ 0.0751 µM) |  | 
16 | Cc1nn(C)c2ncc(C(=O)NC34C(=O)c5c(N)cccc5C3(O)Oc3cc(C(C)C)ccc34)cc12 (stereo not shown) [Example 271, N-(1-Amino-4b-hydroxy-7-isopropyl-10-oxo-9b,10-dihydro-4bH-indeno[1,2-b]benzofuran-9b-yl)-1,3-dimethyl-1H-pyrazolo[3,4-b]pyridine-5-carboxamide] | < 0.01 | < 0.01 | < 0.01 | < 1 | < 1
17 | CC(C)c1ccc2c(c1)OC1(O)c3cccc(N)c3C(=O)C21NC(=O)c1ccc2nccn2c1 (stereo not shown) [Example 272, N-(1-Amino-4b-hydroxy-7-isopropyl-10-oxo-9b,10-dihydro-4bH-indeno[1,2-b]benzofuran-9b-yl)imidazo[1,2-a]pyridine-6-carboxamide] | < 0.01 | < 0.01 | < 0.01 | < 1 | < 1
18 | CC(C)c1ccc2c(c1)OC1(O)c3cccc(N)c3C(=O)C21NC(=O)c1cc2ncccn2n1 (stereo not shown) [Example 273, N-(1-Amino-4b-hydroxy-7-isopropyl-10-oxo-9b,10-dihydro-4bH-indeno[1,2-b]benzofuran-9b-yl)pyrazolo[1,5-a]pyrimidine-2-carboxamide] | < 0.01 | < 0.01 | < 0.01 | < 1 | < 1
19 | Cc1c(C(=O)NC23C(=O)c4c(N)cccc4C2(O)Oc2cc(C(C)C)ccc23)sc2ccccc12 (stereo not shown) [Example 274, N-(1-Amino-4b-hydroxy-7-isopropyl-10-oxo-9b,10-dihydro-4bH-indeno[1,2-b]benzofuran-9b-yl)-3-methylbenzo[b]thiophene-2-carboxamide] | 0.027 (≈ 0.0557 µM) | < 0.01 | < 0.01 |  | < 1
20 | CC(C)c1ccc2c(c1)OC1(O)c3cccc(N)c3C(=O)C21NC(=O)c1cnc2ccccc2n1 (stereo not shown) [Example 275, N-(1-Amino-4b-hydroxy-7-isopropyl-10-oxo-9b,10-dihydro-4bH-indeno[1,2-b]benzofuran-9b-yl)quinoxaline-2-carboxamide] | < 0.01 | < 0.01 | < 0.01 |  | 
21 | CC(C)c1ccc2c(c1)OC1(O)c3cccc(N)c3C(=O)C21NC(=O)c1ccnnc1 (stereo not shown) [Example 276, N-(1-Amino-4b-hydroxy-7-isopropyl-10-oxo-9b,10-dihydro-4bH-indeno[1,2-b]benzofuran-9b-yl)pyridazine-4-carboxamide] | < 0.01 | < 0.01 | < 0.01 | < 1 | < 1
22 | CC(C)c1ccc2c(c1)OC1(O)c3cccc(N)c3C(=O)C21NC(=O)c1ccc2nccnc2c1 (stereo not shown) [Example 277, N-(1-Amino-4b-hydroxy-7-isopropyl-10-oxo-9b,10-dihydro-4bH-indeno[1,2-b]benzofuran-9b-yl)quinoxaline-6-carboxamide] | < 0.01 | < 0.01 | 0.026 (≈ 0.0557 µM) |  | 
23 | CC(C)c1ccc2c(c1)OC1(O)c3cccc(N)c3C(=O)C21NC(=O)c1ccc2nnnn2c1 (stereo not shown) [Example 278, N-(1-Amino-4b-hydroxy-7-isopropyl-10-oxo-9b,10-dihydro-4bH-indeno[1,2-b]benzofuran-9b-yl)tetrazolo[1,5-a]pyridine-6-carboxamide] | < 0.01 | < 0.01 | < 0.01 | < 1 | < 1
24 | CC(C)c1ccc2c(c1)OC1(O)c3cccc(N)c3C(=O)C21NC(=O)c1cccn2nnnc12 (stereo not shown) [Example 279, N-(1-Amino-4b-hydroxy-7-isopropyl-10-oxo-9b,10-dihydro-4bH-indeno[1,2-b]benzofuran-9b-yl)tetrazolo[1,5-a]pyridine-8-carboxamide] | < 0.01 | < 0.01 | < 0.01 | < 1 | < 1
25 | Cc1ccn2cc(C(=O)NC34C(=O)c5c(N)cccc5C3(O)Oc3cc(C(C)C)ccc34)nc2c1 (stereo not shown) [Example 280, N-(1-Amino-4b-hydroxy-7-isopropyl-10-oxo-9b,10-dihydro-4bH-indeno[1,2-b]benzofuran-9b-yl)-7-methylimidazo[1,2-a]pyridine-2-carboxamide] | < 0.01 | < 0.01 | < 0.01 |  | 
26 | Cc1ccnc2nc(C(=O)NC34C(=O)c5c(N)cccc5C3(O)Oc3cc(C(C)C)ccc34)nn12 (stereo not shown) [Example 281, N-(1-Amino-4b-hydroxy-7-isopropyl-10-oxo-9b,10-dihydro-4bH-indeno[1,2-b]benzofuran-9b-yl)-7-methyl-[1,2,4]triazolo[1,5-a]pyrimidine-2-carboxamide] | < 0.01 | < 0.01 | < 0.01 |  | 

Converted amounts (≈) assume the structure as drawn. Read-outs that look alike come from different tables or passages of the source.
